pIC50: −log10 of the molar value. IC50 is the fitted dose that halves viability relative to control wells, and lower means more sensitive; where the fit passes the top or lowest dose, that dose stands as a limit. AUC sums up the same curve from the lowest dose to the 256-fold higher top dose: 1 means no effect, lower means more sensitive. For part of these data: A top dose marked as inferred was calculated from the reported fits. For part of these data: Where an entry number is given, a second screen of the drug exists; the two often differ.
Experiments:
Test in all cases: Viability of human cancer cell lines after 72 h of drug (GDSC screen)
Docetaxel = compound: CC(=O)O[C@@]12CO[C@@H]1C[C@H](O)[C@@]1(C)C(=O)[C@H](O)C3=C(C)[C@@H](OC(=O)[C@H](O)[C@@H](NC(=O)OC(C)(C)C)c4ccccc4)C[C@@](O)([C@@H](OC(=O)c4ccccc4)[C@H]21)C3(C)C [Docetaxel]; conditions: top dose 0.0125 µM
Procedure: (§1)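 Human cancer cell lines in 384-well plates, medium with 10% serum, drug for 72 h over a 256-fold dose range (nine 2-fold or five 4-fold steps up to the top dose). Adherent lines were fixed and stained with the nucleic acid dye Syto60, suspension lines read with resazurin; signal relative to control wells, capped at 0 and 100%. One two-parameter sigmoid per drug and line, fitted in a mixed model over all curves with the slope shared within a line.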

AMG-706 = compound: CC1(C)CNc2cc(NC(=O)c3cccnc3NCc3ccncc3)ccc21 [AMG-706]; conditions: top dose 2 µM; top dose inferred
Procedure: as §1

Cyclopamine = compound: CC1=C2C[C@H]3[C@@H](CC=C4C[C@@H](O)CC[C@@]43C)[C@@H]2CC[C@]12O[C@@H]1C[C@H](C)CN[C@H]1[C@H]2C [Cyclopamine]; conditions: top dose 16 µM; top dose inferred
Procedure: as §1

JNK Inhibitor VIII = compound: CCOc1nc(NC(=O)Cc2cc(OC)ccc2OC)cc(N)c1C#N [JNK Inhibitor VIII]; conditions: top dose 10 µM; top dose inferred
Procedure: as §1

NSC-207895 = compound: CN1CCN(c2ccc([N+](=O)[O-])c3no[n+]([O-])c23)CC1 [NSC-207895]; conditions: top dose 20 µM; top dose inferred
Procedure: as §1

FTI-277 = compound: COC(=O)[C@H](CCSC)NC(=O)c1ccc(NC[C@@H](N)CS)cc1-c1ccccc1 [FTI-277]; conditions: top dose 1.024 µM; top dose inferred
Procedure: as §1

YM155 = compound: COCC[n+]1c2c(n(Cc3cnccn3)c1C)C(=O)c1ccccc1C2=O [YM155]; conditions: top dose 5.12 µM
Procedure: as §1

OSI-906 = compound: C[C@]1(O)C[C@@H](c2nc(-c3ccc4ccc(-c5ccccc5)nc4c3)c3c(N)nccn32)C1 [OSI-906]; conditions: top dose 2.56 µM; top dose inferred
Procedure: as §1

PHA-665752 = compound: Cc1[nH]c(/C=C2\C(=O)Nc3ccc(S(=O)(=O)Cc4c(Cl)cccc4Cl)cc32)c(C)c1C(=O)N1CCC[C@@H]1CN1CCCC1 [PHA-665752]; conditions: top dose 2 µM
Procedure: as §1

SB-715992 = compound: Cc1ccc(C(=O)N(CCCN)[C@@H](c2nc3cc(Cl)ccc3c(=O)n2Cc2ccccc2)C(C)C)cc1 [SB-715992]; conditions: top dose 0.128 µM; top dose inferred
Procedure: as §1

JQ1 = compound: Cc1sc2c(c1C)C(c1ccc(Cl)cc1)=N[C@@H](CC(=O)OC(C)(C)C)c1nnc(C)n1-2 [JQ1]
Procedure: as §1

Belinostat = compound: O=C(/C=C/c1cccc(S(=O)(=O)Nc2ccccc2)c1)NO [Belinostat]; conditions: top dose 20 µM; top dose inferred
Procedure: as §1

CGP-60474 = compound: OCCCNc1cc(-c2ccnc(Nc3cccc(Cl)c3)n2)ccn1 [CGP-60474]; conditions: top dose 0.256 µM; top dose inferred
Procedure: as §1

JNJ-26854165 = compound: c1ccc2c(CCNc3ccc(Nc4ccncc4)cc3)c[nH]c2c1 [JNJ-26854165]; conditions: top dose 10 µM
Procedure: as §1

[1] = top dose 1 µM, screen: GDSC drug entry 1218, top dose inferred
[2] = top dose 2.56 µM, screen: GDSC drug entry 163

| Cell Line | AUC (Docetaxel) | pIC50 (Docetaxel) | AUC (AMG-706) | pIC50 (AMG-706) | AUC (Cyclopamine) | pIC50 (Cyclopamine) | AUC (JNK Inhibitor VIII) | pIC50 (JNK Inhibitor VIII) | AUC (NSC-207895) | pIC50 (NSC-207895) | AUC (FTI-277) | pIC50 (FTI-277) | AUC (YM155) | pIC50 (YM155) | AUC (OSI-906) | pIC50 (OSI-906) | AUC (PHA-665752) | pIC50 (PHA-665752) | AUC (SB-715992) | pIC50 (SB-715992) | AUC (JQ1; [1]) | pIC50 (JQ1; [1]) | AUC (JQ1; [2]) | pIC50 (JQ1; [2]) | AUC (Belinostat) | pIC50 (Belinostat) | AUC (CGP-60474) | pIC50 (CGP-60474) | AUC (JNJ-26854165) | pIC50 (JNJ-26854165) |
| --- | --- | --- | --- | --- | --- | --- | --- | --- | --- | --- | --- | --- | --- | --- | --- | --- | --- | --- | --- | --- | --- | --- | --- | --- | --- | --- | --- | --- | --- | --- |
| OCUB-M (breast, adherent) | 0.766 | 8.40 | 0.988 | < 5.70 | 0.99 | < 4.80 | 0.988 | < 5.00 | 0.808 | 5.06 | 0.97 | < 5.99 | 0.036 | > 7.70 | 0.938 | < 5.59 | 0.99 | < 5.70 | 0.538 | 8.00 | 0.988 | < 6.00 | 0.656 | 6.39 | 0.285 | 6.47 | 0.706 | 7.26 | 0.943 | < 5.00 |
| SNB75 (glioma, adherent) | – | – | 0.955 | < 5.70 | 0.954 | < 4.80 | 0.962 | < 5.00 | 0.978 | < 4.70 | 0.971 | < 5.99 | 0.314 | 7.13 | 0.858 | < 5.59 | 0.972 | < 5.70 | 0.946 | < 6.89 | 0.957 | < 6.00 | 0.547 | 6.64 | 0.565 | 5.69 | 0.563 | 7.59 | 0.944 | < 5.00 |
| MV-4-11 (leukaemia, suspension) | – | – | 0.887 | 5.81 | 0.969 | < 4.80 | 0.98 | < 5.00 | 0.941 | < 4.70 | 0.988 | < 5.99 | 0.202 | 7.28 | – | – | 0.872 | 5.87 | 0.422 | 8.29 | – | – | – | – | 0.193 | 6.72 | 0.66 | 7.39 | 0.628 | 5.88 |
| DB (B-cell lymphoma, suspension) | 0.745 | 8.36 | 0.926 | < 5.70 | 0.978 | < 4.80 | 0.906 | < 5.00 | 0.848 | 4.75 | 0.979 | < 5.99 | 0.03 | > 7.70 | 0.982 | < 5.59 | 0.98 | < 5.70 | 0.73 | 7.40 | 0.796 | 6.27 | 0.78 | 5.92 | 0.13 | > 7.11 | 0.694 | 7.22 | – | – |

Reference: the supplement of paper PMC4967469
